Reference: publication PMC6919601, “Identification of Plasmodium dipeptidyl aminopeptidase allosteric inhibitors by high throughput screening” (PLoS ONE, 2019)
Screen size: about 110,000 compounds; about 230 (0.21%) showed an effect of 50% or more. The list shows a part of the results.

biological target: DPAP1 (Plasmodium falciparum, UniProt Q8IIJ9); experiment: primary screen, percent inhibition; read by cleavage of a fluorogenic dipeptide substrate; higher = more effect of the substance; set-up: species or system P. falciparum D10 trophozoite lysates; single well
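Also: 30 min substrate incubation versus DMSO and 10 µM JCP410 controls.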

Chain of DPAP1 (Q8IIJ9 whole entry, looked up): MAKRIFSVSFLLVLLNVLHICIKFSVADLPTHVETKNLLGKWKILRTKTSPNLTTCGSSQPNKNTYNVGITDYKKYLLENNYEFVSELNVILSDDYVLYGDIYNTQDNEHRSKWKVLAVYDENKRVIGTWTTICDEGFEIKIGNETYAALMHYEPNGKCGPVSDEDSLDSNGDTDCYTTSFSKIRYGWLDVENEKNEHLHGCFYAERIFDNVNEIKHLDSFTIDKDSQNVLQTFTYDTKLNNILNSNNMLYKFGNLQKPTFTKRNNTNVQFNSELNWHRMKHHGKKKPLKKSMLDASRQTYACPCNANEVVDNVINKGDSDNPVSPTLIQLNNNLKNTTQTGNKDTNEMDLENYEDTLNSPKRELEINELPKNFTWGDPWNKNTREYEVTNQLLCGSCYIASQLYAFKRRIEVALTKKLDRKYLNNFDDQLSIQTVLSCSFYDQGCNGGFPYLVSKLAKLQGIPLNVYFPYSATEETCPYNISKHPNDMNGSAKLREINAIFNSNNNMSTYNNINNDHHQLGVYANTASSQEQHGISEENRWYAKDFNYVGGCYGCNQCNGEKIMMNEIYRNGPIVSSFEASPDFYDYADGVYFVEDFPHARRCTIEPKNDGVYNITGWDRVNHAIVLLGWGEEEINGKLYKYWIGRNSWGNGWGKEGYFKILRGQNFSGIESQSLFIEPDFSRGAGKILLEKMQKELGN

Row | SMILES | % Inhibition @ 10 uM [%]
1 | COc1ccc(S(=O)(=O)NCC(=O)O)cc1C(=O)NC1CCCCC1 | -1.98
2 | CC1=C(C(=O)Nc2ccccc2)C(c2ccncc2)n2ncnc2N1 (stereo not shown) | -2.88
3 | O=C(O)c1ccc(S(=O)(=O)NC2CCCCCC2)cc1 | -4.29
4 | COc1cc(C(O)c2nc3ccccc3n2C)cc(OC)c1OC (stereo not shown) | 3.06
5 | O=C(Nc1ccccc1)Nc1ccccc1Br | 2.9
6 | Cn1c(CNc2ccc(F)cc2)nc2ccccc21 | -6.88
7 | COc1cc(OC)cc(C(=O)N(CCCN(C)C)c2nc3c(F)cccc3s2)c1 | 7.44
8 | CC(C)C[C@H](NC(=O)c1ccccc1)C(=O)NC(C#N)c1ccco1 (stereo partly shown) | 0.174
9 | CCCCOc1ccc(CONC(=O)COc2ccc(Cl)cc2Cl)cc1 | 0.685
10 | CC(=O)Nc1c(C#N)c(C)n(-c2ccccc2)c1C(=O)c1ccccc1 | 3.53
11 | CN(C)CCCN(C(=O)COc1ccccc1)c1nc2cc3c(cc2s1)OCCO3 | -2.41
12 | Cc1cccc(C)c1OCC(=O)Nc1ccc(S(N)(=O)=O)cc1 | -0.473
13 | O=C(Nc1ccc(S(=O)(=O)N2CCOCC2)cc1)c1ccccc1 | 3.24
14 | O=C(NCC1CCCO1)C1CCCN(S(=O)(=O)N2CCC3(CC2)OCCO3)C1 (stereo not shown) | -1.67
15 | Cc1nc2c(C(=O)N3CCC4(CC3)OCCO4)cnn2c(C)c1Cc1cccc(Cl)c1 | 2.9
16 | CC(=O)c1cc(C#N)c(SCC(=O)Nc2cccc(C)c2)nc1C | 2.36
17 | CCc1ccc(-c2nc(CS(=O)CC(=O)NCCN3CCCCCC3)c(C)o2)cc1 (stereo not shown) | -0.971
18 | Cc1c(C)n(Cc2ccccc2)c2ccc(C(=O)NCCN3CCN(C)CC3)cc12 | 2.96
19 | Cc1ccc(CN(C(=O)c2nc(SC(C)C)ncc2Cl)C2CCS(=O)(=O)C2)cc1 (stereo not shown) | -2.71
20 | N#CCNC(=O)C(CCc1cccc(Cl)c1F)NC(=O)OCc1ccccc1 (stereo not shown) | -0.207
21 | Cc1ccc(Cn2c(=O)n(CCC(=O)NCc3ccco3)c(=O)c3sccc32)cc1 | -2.47
22 | CSc1nc(O)c2cnn(-c3ccccc3)c2n1 | -1.54

Row | SMILES | % Inhibition @ 10 uM [%]
23 | CCCCCOC(=O)c1c2c(n3ccc(-c4ccncc4)cc13)C(=O)c1ccccc1C2=O | -1.18
24 | O=C(CCC(=O)OCCc1ccccc1)Nc1cccc([N+](=O)[O-])c1 | -2.62
25 | Cc1nn(C)c(C)c1N1C(=O)c2cccc3cccc(c23)C1=O | -8.33
26 | CC(C)(C)c1ccccc1OCC(=O)Nc1ccc(S(=O)(=O)Nc2ccccn2)cc1 | -3.18
27 | O=C(C(c1ccccc1)c1ccccc1)N1CCN(S(=O)(=O)c2ccccc2)CC1 | 4.32
28 | CC1CCC(N2CCN(c3ncccn3)CC2)C1 (stereo not shown) | 3.15
29 | CNC(=O)C(Cc1ccccc1)N1C(=O)C2C3C=CC(C3)C2C1=O (stereo not shown) | 5.81
30 | CCOc1ccccc1C(=O)Nc1nc2ccc(Cl)cc2s1 | -5.48
31 | CC1=C(CCN2CCN(C)CC2)C(C)(C)CCC1 | 3.48
32 | Cc1ccc(O)c(-c2[nH]nc3c2C(c2cccc(O)c2)N(CCO)C3=O)c1 (stereo not shown) | -4.75
33 | Cc1ccc(NC(=O)C23CCC(C)(C(O)C2)C3(C)C)cc1C (stereo not shown) | 4.31
34 | Cc1ccc(-c2csc(Nc3ccc4c(c3)OCO4)n2)cc1 | 0.345
35 | CCOc1ccccc1C1C(C(N)=O)=C(C)Nc2nc(-c3cc(OC)c(OC)c(OC)c3)nn21 (stereo not shown) | -1.47
36 | Cc1cc(Cl)ccc1OCCCC(=O)Nc1cccc(F)c1 | -0.641
37 | CC(=O)N/C(=C\c1ccccc1)C(=O)NC1CCCCC1C (stereo not shown) | -3.78
38 | COc1cc(/C=C2\SC(NC(C)=O)=NC2=O)ccc1OCc1ccccc1F | 6.22
39 | N#Cc1c(N)c(C(=O)c2ccccc2)n2ccccc12 | 1.02
40 | CCC(C)N1C(=O)S/C(=C/c2cc(C)n(-c3ccccn3)c2C)C1=O (stereo not shown) | -5.34
41 | Cn1ccnc1C(O)c1ccc2c(c1)OCO2 (stereo not shown) | -0.233
42 | CCCN(CCC)CCNC(=O)c1cnn(-c2ccc(F)cc2)c1-n1cccc1 | 1.11
43 | CCOC(=O)c1cnn(-c2ccc(OC)cc2)c1C1CCNCC1 | 0.708
44 | O=C(c1cccs1)N1CCN(C(=O)C(c2ccccc2)c2ccccc2)CC1 | -1.6

Row | SMILES | % Inhibition @ 10 uM [%]
45 | CC(=O)c1ccc(NC(=O)c2cccs2)cc1 | -1.17
46 | COc1ccc(NC(=O)CN(c2cc(C)ccc2C)S(C)(=O)=O)c(OC)c1 | -9.56
47 | CCOC(=O)C1=C(CN2CCN(c3ncccn3)CC2)NC(=O)NC1c1ccc(Cl)cc1 (stereo not shown) | -1.03
48 | Cc1onc(-c2ccccc2Cl)c1C(=O)N1CCCC(C)C1 (stereo not shown) | -9.66
49 | CCOC(=O)c1noc2ncnc(N(CCOC)Cc3ccco3)c12 | 5.92
50 | CCCCCO/C(O)=C1\C(C)=NC2=C(C(=O)CCC2)C1c1cccc(F)c1 (stereo not shown) | -1.82
51 | Cc1ccc(-c2cc(C(=O)N3CCCCC3)c3ccccc3n2)s1 | -2.48
52 | Cc1cc(C)c2oc(C(=O)Nc3nnc(C)s3)cc(=O)c2c1 | -3.24
53 | C/C(Nc1ccccc1C)=C1\C(=O)NC(=O)N(C)C1=O | -1.06
54 | Cc1nn(Cc2ccccc2Cl)c(C)c1NC(=O)c1cc(CC(C)C)on1 | -3.12
55 | CCCCN1CC23C=CC(O2)C(C(=O)O)C3C1=O (stereo not shown) | -3.49
56 | Oc1cccc(-c2nc(O)c3c(n2)Oc2ccc4ccccc4c2C3)c1 | -2.84
57 | C=CCNC(=O)C(C)(C)Oc1ccc(Cl)cc1 | -1.35
58 | COCCCn1c(=O)c2sccc2n2c(CCCC(=O)N(C)Cc3ccccc3)nnc12 | -4.46
59 | COc1ccccc1NC(=O)c1ccc2c(c1)-c1ccccc1C2=O | -2.47
60 | O=C(O)CSc1ccc2cc(O)ccc2c1 | -1.8
61 | COc1cc(NC(=O)c2cccnc2)c(OC)cc1Cl | -7.08
62 | Cc1oc2ncn3nc(-c4ccc(F)cc4)nc3c2c1C | 0.401
63 | C=C(C)[C@@H]1CC=C(CN2CCCC(CO)C2)CC1 (stereo partly shown) | -8.55
64 | O=S(=O)(c1ccc(Cl)c(S(=O)(=O)N2CCCC2)c1)N1CCCC1 | 5.84
